Measured values reported in publication PMC10726135.
The list shows a part of the results. At the low end of the ranking the order means little. The protein was read in a cell extract, so binding may be indirect.

The sequences below were run against T1, HNF4alpha2 (COS-7 nuclear extract) (UniProt P41235) (assay: protein-binding microarray). Settings: COS-7 nuclear extract on double-stranded Agilent 4x180k PBM; binding buffer, salt, pH and temperature not given; high values mean tight binding; double strand, one strand shown; sequences stand for … in …GCCTAGGGAGATTAGAGTATCGGTCGA.
T1 sequence: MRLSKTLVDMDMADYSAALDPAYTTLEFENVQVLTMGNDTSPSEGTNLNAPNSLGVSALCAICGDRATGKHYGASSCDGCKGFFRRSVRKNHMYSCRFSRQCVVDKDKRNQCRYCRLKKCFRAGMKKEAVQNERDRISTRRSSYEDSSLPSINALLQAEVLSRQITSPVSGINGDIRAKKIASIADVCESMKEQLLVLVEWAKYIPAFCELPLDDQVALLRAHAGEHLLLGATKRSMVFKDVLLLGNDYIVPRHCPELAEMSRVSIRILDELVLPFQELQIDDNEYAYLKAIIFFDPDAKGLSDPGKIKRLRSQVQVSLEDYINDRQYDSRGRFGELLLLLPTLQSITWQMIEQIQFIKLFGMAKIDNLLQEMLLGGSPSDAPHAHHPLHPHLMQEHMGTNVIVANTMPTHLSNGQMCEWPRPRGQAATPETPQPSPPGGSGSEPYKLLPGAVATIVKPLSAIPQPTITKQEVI

Sequence | binding signal (log2 normalized intensity)
TTCCCCATATTCGTCCAGTTACTGAAAGGG | 0.807
GGCATCTAACCTTCGTCCTTGCCCCTGGCT | 2.6
AGTCAATCCCGTGGACTTTGCCTGCCCATC | 4.01
CAGCAGGAGACCTGAAACTAGACCAAGAAG | -1.18
GGATTGTTACATCATAGTGTTTGCCTTATT | 1.37
CTTAGCAGAAGCCCTCCTGGACATTGTGTG | 1.52
TCGGGGCATGCACTGTTTGCCATAGATCCC | -0.958
CTCATTTATTATTTGTCTGGGTTATCAGTC | 1.97
CGGGTGTTTCTGGGAGTTGTGGTCCGCAGG | 1.01
CCTTTGATCTCCGTGTTTGGAATTGTGTCA | 2.3
TCAAGTGTGCACACTTAGAAAATGCCCTCA | 2.93
TCTGCTGTTTGTTTCACTAATGTAGATTTT | 1.1
TTCAGAGGCCAGCAGTGCTTTTCCCAGGAA | -1.12
ATAGACTTAAGTCTGAATTCTAGTCCTATC | -1.13
CTTTTCCTTTTTGCATGAGAATCTGACCTT | 4.25
TCCCATCTGTGCTCATTATTATCAGCAAGA | -0.325
GGCTTGATCCCTGAACTTTGCTCCCACCCT | 5.57
TCAGACCTGACCTTTGGATTCCCAGATGGA | 5.09
TTGCTTAAACCTAGCTACTAGCCATTTCGG | -1.17
AGTTTTGTTATCTCTGCTTGCAATTTTTGT | 1.55
GGCCTGATAGATTTTGCATTGCTCACATAG | -0.988
GGAAGGTATTGTCATTATTCCAGCTTTACA | 0.00765
ATGTGGTATTAACATGTAAATATGACCTTT | 7.12
GCCTGCAGGTGAATGGAAACAAGAGAGTCT | -1.09
CGCAGTCGCCTGCAAGACAATACCTTCACT | -0.992

Sequence | binding signal (log2 normalized intensity)
CCATCCTTGTTTTGGGGGTTGGTATTACAA | 1.52
GGGATGGACTTTGGCCCTCAGCCCAATGTG | 6.2
TACGTTTGTGATACACCTTGCCTGGCTACC | 0.413
GAACAGGTCAAAGGTCAGTTTCTTTAAGAC | 7.04
TGTGACAGAAGTCATGTCTCATTGCCCCTT | 4.41
GAGTGACCTCTGGTCATTCAATGTTTGGGA | 2.12
TTGTCCTCTGATTCTCCAGTCCGAAGGTCC | 2.74
AGCTGCTTCAGGAGCCCCCTGGGGGAGGTT | 0.491
AGTCCAAATTCCTAGCCCTCTTTCAAAGAC | -1.13
GAAGGCCTCTGATGATTCTAAAGGCACAAT | -0.98
AAAGGCACTTTGATAACTGGGTAAATGTAC | 1.4
CGAGCACGTCGAGCAGGCCCCGTCCCCGCC | 4.19
GAGACCTCTGCAGGAGGACTGGATCAATGG | -0.859
TGCACATGCCCCTCCCAGGGACACATGCCC | 3.79
TCTTGAAATCCCAAGCAGTGATATTCTCTC | -1.09
CTGAGCCCGCTCCACTCCGGGCGATCCGGG | -1.19
AGAATGGAATTCCAGAGAGACTCACTGCAA | -1.15
ACCTTCTCCCACTTCCCTGCCTTTGTATAA | 2.1
AGAACAAACAAATTTAGCAAGACTGCAAAA | -1.09
GGGGCTTTTGTTTAGGAAGAGATCAAAGTT | 1.35
AAGCAGTAGACTAAAACCCATATCTGACTG | -1.06
CTTCAGCCAGATAGCCACTGGGGTCATGGA | 2.43
AGGCTGACCCGTGAATCCTTAAGATTCCTG | -1.1
CTCTGTTGCATGGTTGACATACTTCTGAGT | 1.47
GCATGAACCTTTGCTCCCTGGGAACCCCTC | 2.72

Sequence | binding signal (log2 normalized intensity)
TCCATTTCCCACATTGCTCTCCCATAAGAA | 0.624
TGGAAATTCAGAACTTTGACCACCTACTGT | 1.79
TACAATTCCAGCAAGGATGGGGGCAAAGGT | 2.91
CTGGCCTCGGGGAGCTGTGGGCCTCACACC | -1.13
GAATGAGTTTCCAGAATTGCTTTACGAAGT | -1.08
CTGAAAGCTTCAAAGGACAGGCTGACTATC | -1.13
AAACGGGTTTTACCCTGGGAATGGAGAGAG | -0.957
GAAGATAAGCAGATCTTTAGAGACAGAAAA | -1.16
CCTTTGGTCTAAACCTACTTAGATCAAGAT | -0.394
CTGTAGTAAGGGAGTGTGGGGTGGTGTCAG | 1.57
ACCAGAGCCGTCTGGTAAATTTCTAACACT | -1.16
GTTGCAGTGAGCTAAGATTGGACTCTGCAC | 6.06
TTTGGACTTTGGACTTGGGACTTTCGAGTT | 7.8
TAGTAAAGCTCATGAAGCTTCCCCTTTAAC | -1.05
GGGCACCTCTGAAAGCACTTGTAGGCCTGT | -1.11
GGTTAAAAGTTCTGCTGAGTATCCAAAGGT | 1.45
CAGAAAGTTAGGTTCTGGCACCTGAAGCTG | -1.01
AAAGAGGCTACCAGACCTTGGCCTGCTCCT | -1.21
ACTGCTCCAGTGGACATTGGCCCTTTGACC | 5.99
TTGGTCTCATGGGCCTAAACATTCCCCTTT | 2.13
TAATCTGATCGCCCTCCCCCAGAGAGAACA | 4.81
GTGCAGCTGCTGAAACATTCAACTGACACT | -1.14
AGTCCACAGTCCAGTGACTATCTGCTACTT | -1.1
GGCTGGAGCAGGCCATGTGCAGAGGAGGGG | -1.19
AAAGCAGTGAGTGAAACATCCCACTCAAAG | -1.04

Sequence | binding signal (log2 normalized intensity)
GGGTTATGGAGAGTGGAAGACTGCACCAAA | -1.13
ACACAAACTATGACCTTTGAAACTTACATT | 5.64
GTCCAGAGTTTAAATGACCTCTGCCCTTCC | 6.56
TAAGAAATGAATGTCACTTTCTGACTGGCC | -0.263
ATCTACCATTAGTCTCCAATATATTTGCCT | -0.905
TACAGGCAAGAGAATCAGAGAGATACTGAA | -0.975
GGGGGCTGTTTATGGGTTAACAGAATGAAC | 1.11
TCAGATTGCCTAAAGGGGATTTTCTCAGCT | -1.25
GAAACATTTTACAACCTACTCTTTCTCTGA | -1.16
TGTTCCACCCAGGGTGGCAGGCTCTGCAAA | -1.08
GGGGCAAAGTTTATGTGTGAGCCTATAATT | 1.17
GAAGCAAGTGTTTAACTCTTTATCTTTCTC | 0.752
ACCATAAGAGGCTCTAGATCTCAAAGTCCA | 3.9
CTGTGCTTTCTAAAGTATGTGGTGGGTGTG | 2.5
GCCACATTCCCCGACTCCTGGGTGTGAGAT | 0.517
TCTGTCCCTGCACCCTACCCCCATACTTTA | 3.83
GAGACACCCCTGCAGAAGCGGGAGAGGCCC | -1.2
AGAGCTCCAGAAGAAAGGGGAGATAATGCC | -1.02
ATCTGACCAAGTGAACTGTGACCTGATGAC | 2.97
CAAACGAGACTTTGGACTTTGGACTTGGGA | 10.5
ATTCCAAGAAGAGCCAATAGTACACATCAA | -0.572
CCTCCCCATTGTAGATTCAATAATACAAGA | 1.14
AGTTTGTCTGATCTTCCTGAGGAGAGCAAA | -1.13
TTGTGTAACATCTAAGATTGGCCCTGATAA | 0.233
CCAGAGAAATAGTGAGACAGACATGCGACA | -1.12

Sequence | binding signal (log2 normalized intensity)
TTGTTTGTGTTTCCCTCCCTGGTATGTACT | 2.72
GAACAAGTATCCTGGTAGTGCGACAAGAAT | -1.22
ATTCTACTGCCATTGATAATTCAGTTTCAT | 0.638
GACCTGGCATATCTCTGTCCCTGATACCAT | 0.149
TTCTGATCTTTGACCTCTCCAGGGTCCTTG | 4.73
CTTCCCCCATCCCCAACAAAGCTCTGCATC | 4.73
AATGCTATGCTTTTATTTAACTTCTGGGGG | -0.748
CATGGGTCTCTTCCTCAGTTTGTTCTTGGG | 1.18
CAAGTAAATTCCGGGGCTGGAATTTGAACC | 5.13
CTCCCCTCCTCCAGATGGGCTCATGTAACA | 2.61
TTGCCACTAGGGGTCACTGTCACATGTCCA | 2.21
GAATGGACTCTGAGACCTGTGATGGTCACT | 1.43
AGTAGCAGTTCAAAAGTTCAAAGATATGAT | 1.04
TCAGGCCATTTCACCTTTGCCCTGTCAGTC | 5.88
CACACCTCCAGCCACCCTGAAGGCTGAGCC | -1.08
AACAAATAAAGTGGATGGAGCAATTCAACA | -0.928
GGCCTTATAGGGCATACCCTTCCTGCTGAC | -1.08
GCCAAGGACCGCCAAGGAAGCGATGGGCTG | -1.07
GAGTCCAGTGGGGGAGAGGGAGAATAAGGG | -1.11
CTTGTTTGTGTAACTGTGGGTTCTAGGTAA | 1.75
TCTGCTTTCAAAGCTCCAGTTCCAGGGATG | -0.556
GCGGTAAAGAAGCCAGCCAAATCCCACCAA | 2.06
CCGCAGTGGGAGAGCAAGGGTCAAGGGTCA | 6.65
GAACCTGTGTTTCCTGGATTGTGAAACACA | 0.253
CAATCAGCAGCAAAGTCCTGGAAGAAACCC | -1.15

Sequence | binding signal (log2 normalized intensity)
ACTAATGCATTCCCAGCAAGTGAAGAGGAA | -1.15
TGTGTTGGCACTTTGGACTTGAGAAGACAT | 3.23
TATCTAAAAGCTTATCTGCACAATGAAACT | -1.15
GCTGTCAGCCACCAAAGCAGCTAGCAAATA | -1.2
CATTGTGTTAAAGGAATTCAGGACTTGGTA | 1.07
GTTATCTAATGGAGAGGATGGGGACAAAGG | 1.47
AAGACAGGGGCTATTTCTGACCTTTGCACC | 9.65
TAGTAGCCCTTTGTATCTTTTAAGATACAC | 0.084
AGGGGTCACCTCGCTCCCCTCCTGTCAGTT | 1.51
TCAGCTGGGCTCGGCGCTCCGCTTACTCGG | -1.06
TGAAATCTAATCTCTGTAACATTCCTAGAT | -1.15
AGAACAGTCTGTGACTTGATCTTTGACTGG | 3.37
GCATTTCACAATAGGGTTCAAACTCCTATG | 2.05
TTTCAAGGTGACCCCACGGAGCTGCCTCAC | 2.23
CTGAGAGAGCAGGGCCCGAGGCCTTGAGCA | -1.14
ATCACACTACTGGCTTTTCTGGTTCTCCAG | -0.917
TAATCTGACTTGACAGGTTTCTTGCTGAAG | -0.717
TCTAATCTCTGTAACATTCCTAGATATCAG | -1.29
TAAGCAATCCCTTAGGCTTTTGCACTTTAC | 2.96
TTAAGTGGTTCACAAACATTCCAGTGGTCC | 1.21
